# Data: PubChem BioAssay (Tox21)
# The shares of active, inactive and inconclusive entries below differ from those in the screen. Calls follow the shape of the dose curve; as a rule, active = well fitted cell-killing curve with a large enough effect in the repeat runs; inconclusive = weak or mixed curves, or effect the other way; inactive = flat fitted curve, though single readings scatter. Potencies of inconclusive entries are left out as doubtful fits.
# Experiment: qHTS assay to identify small molecule antagonists of the estrogen receptor alpha (ER-alpha) signaling pathway using the BG1 cell line - cell viability counter screen (AID 743081);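 also: compound given together with 17beta-estradiol as the ER stimulus; nearly all actives have a fitted effect of over 45% in size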
# Settings: BG1Luc4E2 viability, CellTiter-Fluor, 22 h; series mostly up to 70.3 µM
# Potency is read from the fitted curve at half-maximal effect; tags tell the direction and shape of the fitted curve.
compound,measurement,value
Cc1ncc(CO)c(CO)c1O,Potency,"inconclusive [rising, partial curve, poor fit]"
